# Assay results published in the BET-seq Pho4 binding data (Le et al. 2018).
# This is one part of the list. These are noisy estimates, calculated here from bound and input reads.
# Molecular target: T1, Pho4 (S. cerevisiae) (UniProt P07270)
# T1 sequence: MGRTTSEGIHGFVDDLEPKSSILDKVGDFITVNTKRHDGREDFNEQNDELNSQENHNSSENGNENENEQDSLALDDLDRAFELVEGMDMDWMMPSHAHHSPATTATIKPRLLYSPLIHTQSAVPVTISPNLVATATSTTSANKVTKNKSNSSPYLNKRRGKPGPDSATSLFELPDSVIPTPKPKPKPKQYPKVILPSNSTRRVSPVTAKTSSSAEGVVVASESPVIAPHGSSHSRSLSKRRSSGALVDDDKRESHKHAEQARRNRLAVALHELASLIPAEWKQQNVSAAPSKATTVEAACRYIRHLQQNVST
# Test: relative binding free energy (BET-seq); higher = weaker binding
# Settings: reference: library average
row,Sequence,relative binding free energy
1,TAAGTCACGTGAGTTA,0.24 kcal/mol
2,TTGTACACGTGCGTTT,0.08 kcal/mol
3,TTGTGCACGTGGGCGC,-0.12 kcal/mol
4,CATAGCACGTGGAGTA,0.09 kcal/mol
5,AGGGGCACGTGATGGT,0 kcal/mol
6,ATCTGCACGTGGGATG,-0.26 kcal/mol
7,TGGAGCACGTGGTTGT,-0.14 kcal/mol
8,GTATGCACGTGCATTT,-0.1 kcal/mol
9,GTTATCACGTGCGGTA,0.15 kcal/mol
10,TTTATCACGTGCGTGC,0.21 kcal/mol
11,AGTGGCACGTGTGTGA,-0.12 kcal/mol
12,TGGGACACGTGTTGGG,0.11 kcal/mol
13,GGGTACACGTGGTTTC,0.03 kcal/mol
14,GGTTTCACGTGCTGGA,0.2 kcal/mol
15,TATTTCACGTGCATGT,0.17 kcal/mol
16,TCAGTCACGTGATTTT,0.13 kcal/mol
17,TGTGACACGTGTAGGC,0.08 kcal/mol
18,GTATGCACGTGTGTTA,0.02 kcal/mol
19,GGGAACACGTGGCAGG,-0.05 kcal/mol
20,AGTACCACGTGTTTTG,-0.02 kcal/mol
21,GCGTGCACGTGGCAGT,-0.15 kcal/mol
22,GCTATCACGTGTGGGG,0.16 kcal/mol
23,CAAGTCACGTGGGGCG,-0.12 kcal/mol

row,Sequence,relative binding free energy
1,GTAGTCACGTGAGTCG,0.31 kcal/mol
2,TTTGGCACGTGCGTAA,-0.18 kcal/mol
3,TGGTGCACGTGCCTTG,-0.11 kcal/mol
4,TTCTACACGTGCGGTA,0.21 kcal/mol
5,TCATTCACGTGGTCGG,0.43 kcal/mol
6,ATGGTCACGTGGGCAA,-0.08 kcal/mol
7,CCTTGCACGTGTGGTT,-0.06 kcal/mol
8,TGGTTCACGTGAGATA,0.36 kcal/mol
9,TTGGGCACGTGTGCAA,-0.2 kcal/mol
10,TGGAGCACGTGGTAAT,-0.1 kcal/mol
11,TAGTACACGTGTCATT,0.07 kcal/mol
12,AATGACACGTGTCTTG,0.03 kcal/mol
13,TGTAGCACGTGAATCG,0.24 kcal/mol
14,ATCGTCACGTGGGTTC,-0.02 kcal/mol
15,GTTTACACGTGCTCGG,0.1 kcal/mol
16,TTTTTCACGTGGTGAA,0.39 kcal/mol
17,ATGAGCACGTGGGTGT,-0.25 kcal/mol
18,AGTGCCACGTGATTGA,0.04 kcal/mol
19,TGGGGCACGTGGACCA,-0.07 kcal/mol
20,TTTGACACGTGGGGAG,-0.08 kcal/mol
21,AGGTACACGTGTCGGG,0.13 kcal/mol
22,ATATACACGTGGGGTT,-0.12 kcal/mol
23,TGCATCACGTGCGGTG,0.14 kcal/mol

row,Sequence,relative binding free energy
1,GTGTGCACGTGTGAGA,0.13 kcal/mol
2,AAGTGCACGTGGGACG,-0.11 kcal/mol
3,GTTGTCACGTGTAGTC,0.18 kcal/mol
4,CGGGTCACGTGATTGG,0.16 kcal/mol
5,CAGTGCACGTGTGGAG,0 kcal/mol
6,GTGATCACGTGATAAG,0.25 kcal/mol
7,GGGGGCACGTGCTAGG,-0.27 kcal/mol
8,TGAGTCACGTGGGGTT,0.05 kcal/mol
9,ACTGGCACGTGAGTAT,0.19 kcal/mol
10,GGCTTCACGTGATGCT,0.38 kcal/mol
11,AGCCTCACGTGGGGGT,-0.07 kcal/mol
12,GGCATCACGTGGGTTA,0.06 kcal/mol
13,CTGTGCACGTGTGTAC,0.09 kcal/mol
14,CGCGTCACGTGGCGTG,0.03 kcal/mol
15,GGGTGCACGTGCAATG,0.06 kcal/mol
16,CTGGACACGTGGCGTG,-0.16 kcal/mol
17,TGTGGCACGTGTGTGT,-0.03 kcal/mol
18,CAGGGCACGTGTCGGG,-0.04 kcal/mol
19,CGGTGCACGTGGGCTG,-0.08 kcal/mol
20,TGTGTCACGTGTACCG,0.08 kcal/mol
21,TAATACACGTGGGGCG,-0.11 kcal/mol
22,GCTAGCACGTGTGTAT,0.07 kcal/mol
23,TGTGACACGTGGCGAG,-0.12 kcal/mol

row,Sequence,relative binding free energy
1,TGCCTCACGTGAGTGG,0.32 kcal/mol
2,TATGACACGTGACGTT,0.24 kcal/mol
3,GAGGTCACGTGTGCCG,0.31 kcal/mol
4,GGTAACACGTGGTTTG,0.14 kcal/mol
5,CAGTACACGTGGTGTG,0.02 kcal/mol
6,ATAGCCACGTGTAGTT,-0.06 kcal/mol
7,GAGGTCACGTGTGGAG,0.27 kcal/mol
8,TGTTGCACGTGGTAAA,-0.02 kcal/mol
9,GGATTCACGTGATTTT,0.54 kcal/mol
10,CAGAACACGTGTGTGG,-0.02 kcal/mol
11,AAGGGCACGTGAAGGG,0.23 kcal/mol
12,AATTACACGTGGCGTG,-0.01 kcal/mol
13,GTCGGCACGTGAGGCG,0.14 kcal/mol
14,TTTGACACGTGCCTGT,-0.14 kcal/mol
15,CGCGTCACGTGTGTGT,0.12 kcal/mol
16,GGGGTCACGTGGGGAC,0.04 kcal/mol
17,ACGTGCACGTGTTAGA,-0.06 kcal/mol
18,TAAATCACGTGTATAG,0.12 kcal/mol
19,AATTGCACGTGAGGAG,0.09 kcal/mol
20,CTTAGCACGTGTAATT,0.11 kcal/mol
21,AACGTCACGTGGTGTA,-0.01 kcal/mol
22,GGGGCCACGTGTAGTA,0.01 kcal/mol
23,ATCATCACGTGTTATT,0.1 kcal/mol

row,Sequence,relative binding free energy
1,TATTCCACGTGGATGG,0.03 kcal/mol
2,AGTGACACGTGGGTGA,-0.11 kcal/mol
3,GCGGGCACGTGGGAAT,-0.19 kcal/mol
4,CAGTTCACGTGTAGTA,0.22 kcal/mol
5,AGTGACACGTGACGTG,0.13 kcal/mol
6,AATATCACGTGTTGAT,0.12 kcal/mol
7,TGATACACGTGGAGAG,0.03 kcal/mol
8,TGATGCACGTGCGATG,0.09 kcal/mol
9,TTTAACACGTGAAGTG,0.3 kcal/mol
10,GTTAGCACGTGTTCAT,-0.07 kcal/mol
11,GGTGACACGTGTGCAT,0.06 kcal/mol
12,GTCTTCACGTGGTGTA,0.01 kcal/mol
13,ATGTCCACGTGTGAGT,0.02 kcal/mol
14,TGACTCACGTGGTGAG,0.21 kcal/mol
15,CAGGTCACGTGGTAAG,0.04 kcal/mol
16,AGGGACACGTGCGGGT,-0.06 kcal/mol
17,TCGTTCACGTGCGGGG,0.27 kcal/mol
18,TAGTACACGTGTAGCG,0.05 kcal/mol
19,GCATGCACGTGGGGGT,-0.18 kcal/mol
20,GCTGACACGTGGTGGT,-0.08 kcal/mol
21,GGGAGCACGTGTGAAG,0.09 kcal/mol
22,TGTAGCACGTGAGAAT,0.13 kcal/mol
23,AAGAGCACGTGGTGGG,-0.13 kcal/mol
